# Source: US20240392007A1 (SHENGHE CHINA BIOPHARMACEUTICAL, published 2024)
# B1: constructed antibody (heterodimeric protein: B7H3-targeting light chain and first heavy chain, with a second heavy chain of Fc fused to IL-10) (other)
# heavy: QVQLQQSGAELVKPGASVKLSCKASGYTFTNYDINWVRQRPEQGLEWIGWIFPGDGSTQYNEKFKGKATLTTDTSSSTAYMQLSRLTSEDSAVYFCARQTTATWFAYWGQGTLVTVSAASTKGPSVFPLAPSSKSTSGGTAALGCLVKDYFPEPVTVSWNSGALTSGVHTFPAVLQSSGLYSLSSVVTVPSSSLGTQTYICNVNHKPSNTKVDKKV[sequence of human IgG1 Fc with D270N T366W (EU numbers) omitted]
# light: DIVMTQSPATLSVTPGDRVTLSCRASQSISDYLYWYQQKSHESPRLLIKYASQSISGIPSRFSGSGSGSDFTLSINSVEPEDVGVYYCQNGHSFPLTFGAGTKLELKRTVAAPSVFIFPPSDEQLKSGTASVVCLLNNFYPREAKVQWKVDNALQSGNSQESVTEQDSKDSTYSLSSTLTLSKADYEKHKVYACEVTHQGLSSPVTKSFNRGEC
# chain: SPGQGTQSENSCTHFPGNLPNMLRDLRDAFSRVKTFFQMKDQLDNLLLKESLLEDFKGYLGCQALSEMIQFYLEEVMPQAENQDPDIKAHVNSLGENLKTLRLRLRRCHRFLPCENKSKAVEQVKNAFNKLQEKGIYKAMSEFDIFINYIEAYMTMKIRNGGGGSGGGGSGGGGSSPGQGTQSENSCTHFPGNLPNMLRDLRDAFSRVKTFFQMKDQLDNLLLKESLLEDFKGYLGCQALSEMIQFYLEEVMPQAENQDPDIKAHVNSLGENLKTLRLRLRRCHRFLPCENKSKAVEQVKNAFNKLQEKGIYKAMSEFDIFINYIEAYMTMKIRNGGGGS[sequence of human IgG1 Fc with D270N Y407A (EU numbers) omitted]
# notes: Three chains co-expressed in ExpiCHO and purified by Protein A and an ionic column; A signal peptide was added at the nucleotide level; also called constructed antibodies; target antibody
# Biological target: T1, IL-10 receptor human IL10RA-his (purchased from Beijing Yiqiao Shenzhou Technology Co., Ltd.) (human, UniProt Q13651 22-235)
# T1 construct: Bought protein coated on the ELISA plate; also called IL10RA protein; IL-10 receptor proteins; not shown: his tag
# T1 sequence (looked up): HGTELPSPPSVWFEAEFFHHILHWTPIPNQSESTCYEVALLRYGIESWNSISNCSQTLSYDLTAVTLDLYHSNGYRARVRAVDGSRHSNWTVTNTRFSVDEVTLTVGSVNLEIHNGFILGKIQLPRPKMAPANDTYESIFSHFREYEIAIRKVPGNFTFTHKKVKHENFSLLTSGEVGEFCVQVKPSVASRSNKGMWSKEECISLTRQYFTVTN
# Assay: ELISA, human IL10RA-his coated on plate, detection with HRP goat anti-human IgG Fc
# Method: The IL-10 receptor human IL10RA-his (purchased from Beijing Yiqiao Shenzhou Technology Co., Ltd.) was diluted to 0.5 μg/mL with the PBS buffer of pH 7.4 and coated into 96-well ELISA plates at 100 μL/well and allowed to stand overnight at 4° C. The plate was blocked with 1% BSA blocking solution for 1 hour, and then washed 3 times with PBST. The purified antibody was diluted to 10 μg/mL with 0.5% BSA sample diluent as the starting concentration and 3-fold diluted in 11 gradients, and set up a negative control with irrelevant antibodies and a positive control (IL-10), and it was added 100 μL per well, incubated for 1 h at 37° C. The plate was washed 3 times with PBST and HRP-labelled goat anti-human IgG Fc (Jackson Cat: 109-035-098) was diluted according to 1:10000 with sample diluent and it was added 100 μL per well and incubated for 1 h at room temperature. After washing the plate 4 times with PBST, it was added 100 μL of TMB substrate per well and incubated at room temperature without light for 10 min. […]
# The absorbance value of each well in the 96-well plate was measured on a multifunctional enzyme standard at a wavelength of 450 nm and a reference wavelength of 570 nm, absorbance value (OD) per well=OD450 nm-OD570 nm. The concentration of the antibodies were logarithmically plotted as the horizontal coordinate and the measured absorbance value per well as the vertical coordinate. […]
binder,measurement,value
B1,binding result,binds
